Assay results: PubChem BioAssay AID894 (National Center for Advancing Translational Sciences (NCATS), 2007)
“And” between values parts separate entries of the source, which are not always exact repeats. Equal values may be shown once. Hit rate of the full screen: of about 150,000 compounds, about 6,500 (4.3%) were called active. The inconclusive results got no clear call from the source; some entries with a clear call stand among them for comparison. The call rests on the fitted dose curve; in most records, active means well fitted inhibition curve with a large enough effect (not every such curve was filed as active); inconclusive means small, poorly fitted or top-dose-only effect, or another doubt; inactive means no such curve, though single readings can be large or run the other way. Potencies beside an inconclusive call are fits to weak or partial responses and may not hold up.

molecular target: 15-hydroxyprostaglandin dehydrogenase [NAD(+)] (Homo sapiens) (UniProt P15428); experiment: qHTS Assay for Inhibitors of HPGD (15-Hydroxyprostaglandin Dehydrogenase); conditions: purified HPGD, NADH fluorescence kinetic, PGE2 substrate; activity change, negative = inhibition: active compounds read low
In short: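 20 nM HPGD preincubated 15 min at room temperature with compound in 50 mM Tris-HCl pH 8, 0.01% Tween 20. Started with 1 mM NAD+ and 30 uM prostaglandin E2; NADH fluorescence (360/450 nm) read 5 times over 30-s intervals, last minus first.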
On the % scale 0 is the no-effect control and ±100 the full control effect; potency means the concentration at half of the fitted maximal effect; tags describe the fitted curve by direction and shape.

Sequence of UniProt P15428 (P15428 whole entry, looked up): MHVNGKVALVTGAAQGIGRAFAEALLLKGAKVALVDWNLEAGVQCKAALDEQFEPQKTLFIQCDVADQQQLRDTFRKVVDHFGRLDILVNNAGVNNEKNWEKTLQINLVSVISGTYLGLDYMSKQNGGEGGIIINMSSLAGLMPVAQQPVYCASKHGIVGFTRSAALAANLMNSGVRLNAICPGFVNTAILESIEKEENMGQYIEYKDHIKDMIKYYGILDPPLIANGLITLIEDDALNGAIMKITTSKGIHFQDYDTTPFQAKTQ

Compound | Potency | activity change, negative = inhibition
Cc1ccc(-c2nnc(Nc3ccc(C(=O)N(C)C)cc3)c3ccccc23)cc1S(=O)(=O)NCC1CCCO1 (centres undefined) | inconclusive: 22.4 µM [inhibitor, partial curve, poor fit] | 
CCC1SC2=NC(C)=C(C(=O)OC)C(c3ccc(C)cc3)N2C1=O (centres undefined) |  | inactive: -24.4%
Cc1ccc(-c2nnc(N)s2)cc1 |  | inactive: -29.9%
Oc1ccc(C=Nc2ccccc2-c2nc3ccccc3[nH]2)c(O)c1 | inconclusive: 25.1 µM [inhibitor, partial curve] | 
Cc1cc(Cl)ccc1NC(=S)NCCN1CCOCC1 |  | inactive: -6.58%
c1ccc(OCc2nnc3sc(-c4cccs4)nn23)cc1 | active: 8.91 µM | 
CC(=O)N(C)c1ccc(NC(=O)c2ccccc2C(=O)O)cc1 |  | inactive: -2.58%
O=c1c(O)c(-c2ccc(O)cc2)oc2ccc(O)cc12 |  | inactive: -19.3%
Cc1nnc(SCCCn2c(N3CCN(c4ccccc4)CC3)nc3c2c(=O)[nH]c(=O)n3C)s1 |  | inactive: -9.31%
CC(Oc1cccc(Cl)c1)C(=O)Nc1cc(=O)n(C)c(=O)n1C (centres undefined) |  | inactive: 3.02%
CCOc1ccc2nc(NCCNC(=O)CC)c(C#N)cc2c1 | inconclusive: 28.2 µM [inhibitor, partial curve] | 
COC(=O)c1ccc(Nc2nc(C)cc(C)n2)cc1 | inconclusive: 28.2 µM [inhibitor, single point] | 
O=C(CCS(=O)(=O)c1cccc2nsnc12)NC1CCCCC1 | active: 28.2 µM | 
CCC(=O)NCCNc1nc2cc(C)c(C)cc2cc1C#N | inconclusive: 22.4 µM [inhibitor, partial curve] | 
Cc1cc(C=O)c(C)n1-c1ccc(NC2CCCCC2)c([N+](=O)[O-])c1 | active: 7.94 µM | 
Cc1ccc(CCN2CC(C(=O)NCc3ccco3)CC2=O)cc1 (centres undefined) |  | inactive: -12.5%
c1csc(C2Nc3cccc4cccc(c34)N2)c1 | inconclusive: 28.2 µM [inhibitor, partial curve] | 
Cc1ccn2c(/C=N/OCc3cccc(F)c3)c(-c3ccc(Cl)cc3)nc2c1 | inconclusive: 31.6 µM [inhibitor, partial curve] | 
CC1CCN(c2c(NCC3CCC(C(=O)NCc4ccccc4Cl)CC3)c(=O)c2=O)CC1 (centres undefined) | active: 15.8 µM | 
CCOC(=O)/C(C#N)=N\Nc1ccc(S(=O)(=O)Nc2nc(C)cc(C)n2)cc1 | inconclusive: 28.2 µM [inhibitor, single point] | 
Cc1ccc(-c2cc(C(=O)NCCCN3CCOCC3)no2)cc1 |  | inactive: -7.55%
CC(C)C(N)C(=O)NC(Cc1c[nH]c2ccccc12)C(=O)O (centres undefined) |  | inactive: -2.33%
COCCNC(=O)CSc1nc2ccc(N3CCOCC3)cc2c(=O)n1CCc1ccccc1 | inconclusive: 28.2 µM [inhibitor, partial curve] | 
CCOC(=O)NC1(NCc2ccccc2)Oc2ccccc2O1 |  | inactive: -9.01%
Cn1cccc1C(=O)N1CCC2(CC1)CCN(c1ccccn1)CC2 |  | inactive: -29.6%

Compound | Potency | activity change, negative = inhibition
O=C(c1c(Cl)cccc1Cl)N1CCCCCC1 | active: 28.2 µM | 
O=C(Cn1cnc2c(nnn2Cc2ccc(F)cc2)c1=O)OCc1ccccc1 | inconclusive: 11.2 µM [inhibitor, partial curve] | 
COc1ccc(S(=O)(=O)NCc2ccc(C(=O)N3CCc4ccccc4C3)cc2)cc1 | active: 2.82 µM | 
CCSc1nc(N)c2c3c(sc2n1)CN(C)CC3 | inconclusive: 31.6 µM [inhibitor, partial curve] | 
O=C(CSc1nnc(Cn2nnc(-c3ccccc3)n2)n1-c1ccccc1)Nc1ccc(F)cc1 |  | inactive: -1.5%
O=C(COC(=O)c1ccccc1NC(=O)c1ccccc1)c1ccc([N+](=O)[O-])cc1 |  | inactive: -12.6%
Cn1c(C(=O)NCCCN2CCCC2=O)cc2c(=O)n(C)c3ccccc3c21 | inconclusive: 31.6 µM [inhibitor, partial curve] | 
COc1ccc(CNC(=O)COC(=O)C2CC3C=CC2C3)cc1 (centres undefined) | inconclusive: 11.2 µM [inhibitor, partial curve] | 
CC(C)(C)C(=O)NC(NC(=S)Nc1sc2c(c1C#N)CCCC2)C(Cl)(Cl)Cl (centres undefined) | inconclusive: 20 µM [inhibitor, partial curve] | 
COc1ccccc1[C@@H]1C(c2cccc(C)c2)=NN(c2ccccc2)[C@H]1C(=O)N1CCOC1=O | inconclusive: 20 µM [inhibitor, partial curve] and inconclusive: 35.5 µM [inhibitor, partial curve] | 
CCn1c2ccccc2c2cc(CN3CCN(S(=O)(=O)Cc4ccccc4)CC3)ccc21 | inconclusive: 31.6 µM [inhibitor, partial curve] | 
CC(C)C1OC2(C)OC(=N)C1(C#N)C(C#N)(C#N)C2c1ccccc1 (centres undefined) | inconclusive: 35.5 µM [inhibitor, single point] | 
O=C1NC(=O)c2cc([N+](=O)[O-])ccc21 |  | inactive: -8.61%
Cc1nc(NC2CCCCC2)c2nc(-c3ccccc3)n(CCCN3CCCCC3C)c2n1 (centres undefined) | inconclusive: 31.6 µM [inhibitor, partial curve] | 
Cc1nc2ccc(Cl)cc2[nH]1 |  | inactive: -10.6%
Cc1nc2c(Br)cc(Br)cc2cc1O | inconclusive: 22.4 µM [inhibitor, partial curve] | 
Cc1ccc(-c2csc(NC(=O)c3ccc(-c4ccccc4)cc3)n2)o1 | inconclusive: 25.1 µM [inhibitor, partial curve] | 
COc1ccc(F)cc1S(=O)(=O)Nc1ccccc1C(=O)O |  | inactive: -9.67%
CCOc1ccccc1OCc1nn2c(COc3ccccc3)nnc2s1 | active: 11.2 µM | 
N/C(=N\c1nc2c(c(=O)[nH]1)CCC2)Nc1ccccc1 |  | inactive: -13.5%
CCOC(=O)Cc1csc(NC(=O)CSc2ncnc3c2cnn3-c2ccc(OC)cc2)n1 | inconclusive: 35.5 µM [inhibitor, partial curve] | 
O=C(CCN1C(=O)COc2ccccc21)NCCC1=CCCCC1 |  | inactive: -12.7%
C=CCn1c(O)c(N=NC(=S)Nc2ccccc2C)c2cc(S(=O)(=O)N3CCOCC3)ccc21 |  | inactive: -24.7%
COc1cccc(-c2nc(Cc3ccc(OC)c(OC)c3)no2)c1 | inconclusive: 17.8 µM [inhibitor, partial curve] | 
CC(C)(C)c1ccc(C(=O)NC(=S)Nc2sc3c(c2C#N)CCC3)cc1 | inconclusive: 7.08 µM [inhibitor, partial curve] | 

Compound | Potency | activity change, negative = inhibition
CC(=O)N1CCC2(CC1)CN(c1ccccn1)C2 | inconclusive: 25.1 µM [inhibitor, partial curve] | 
Nc1ccccc1C(=O)NCc1ccc(Cl)cc1 | inconclusive: 25.1 µM [inhibitor, partial curve] | 
CCCC1(C(=O)OCC)NC(c2cc(OC)c(OC)c(OC)c2)C2C(=O)N(CC)C(=O)C21 (centres undefined) |  | inactive: 0.853%
C/C=C/C=N/Nc1nc(-c2ccc([N+](=O)[O-])cc2)cs1 |  | inactive: -4.19%
Cc1ccc(-c2csc3ncnc(OCC(=O)NC(=O)NCc4ccco4)c23)cc1 | inconclusive: 35.5 µM [inhibitor, partial curve] | 
CN=C(NC)SC1CC(=O)N(c2ccccc2)C1=O (centres undefined) |  | inactive: 3.98%
CC(C)CNC(=O)COC(=O)/C=C/c1ccccc1[N+](=O)[O-] | active: 28.2 µM | 
N/C(=N\OC(=O)Cc1cccs1)c1ccc(Br)cc1 |  | inactive: -15.6%
O=c1c2ccccc2oc2ccccc12 | inconclusive: 31.6 µM [inhibitor, partial curve] | 
CCc1ccc(C2C3=C(CC(C)(C)CC3=O)Nc3c2c(=O)[nH]c2nc(C)nn32)cc1 (centres undefined) | inconclusive: 22.4 µM [inhibitor, partial curve] | 
CC(C)OC(=O)c1c(NC(=O)c2cnn3c2NC(c2ccccc2)CC3C(F)(F)F)sc2c1CCCC2 (centres undefined) | inconclusive: 17.8 µM [inhibitor, partial curve] | 
CCCc1cc(N2CCN(C(=O)c3ccco3)CC2)n2c(nc3ccccc32)c1C#N | inconclusive: 12.6 µM [inhibitor, partial curve] | 
S=c1[nH]nc(-c2ccco2)n1/N=C/c1ccc(Cl)cc1Cl | active: 2.24 µM | 
CC1CCN(c2c(NCC3CCC(C(=O)Nc4ccccn4)CC3)c(=O)c2=O)CC1 (centres undefined) | active: 22.4 µM | 
CCN(CC)C(=O)CP(=O)(c1ccccc1)c1ccccc1 |  | inactive: 1.12%
CC(C)NC(=O)c1ccc2c(=O)n(Cc3ccco3)c(=S)[nH]c2c1 |  | inactive: -16.6%
Clc1ccc2nc(N3CCCCC3)[nH]c2c1 | inconclusive: 12.6 µM [inhibitor, partial curve] | 
O=C(NCCc1ccccc1)c1ccccc1NS(=O)(=O)N1CCCC1 | inconclusive: 28.2 µM [inhibitor, partial curve] | 
COc1ccccc1CNC(=O)C[n+]1ccccc1 |  | inactive: 1.94%
Cc1cc(Cl)ccc1Nc1sc(C(=O)c2cc3cc(Cl)ccc3o2)c(N)c1C#N |  | inactive: -4.57%
CCN(C(=O)CSc1nc2cc(C(=O)OC)ccc2c(=O)n1Cc1ccco1)c1cccc(C)c1 | inconclusive: 28.2 µM [inhibitor, partial curve] | 
CCC(C)c1ccc(O)c(N)c1 (centres undefined) | inconclusive: 14.1 µM [inhibitor, partial curve] | 
Cn1c(C(=O)NCc2ccccn2)cc2c(=O)n3ccccc3nc21 | inconclusive: 15.8 µM [inhibitor, partial curve] | 
O=C(Nc1ccc(F)cc1)N(CCCN1CCOCC1)Cc1cc2cc3c(cc2[nH]c1=O)OCO3 | inconclusive: 28.2 µM [inhibitor, partial curve] | 
